We go through 15 sequences from the supplement of paper PMC7826260.

What all share (experiment): uncleaved DNA left, log2 of reads against the no-enzyme library (log2 ratio); higher = less cleavage (more negative = more Rep cleavage of the k-mer); sequences stand for … in CTCGTCCG…ACCGGAGA
In test [1] the test system is T1, Rep nickase domain of Muscovy duck circovirus.
T1 sequence (protein, residues 1-111, tag omitted): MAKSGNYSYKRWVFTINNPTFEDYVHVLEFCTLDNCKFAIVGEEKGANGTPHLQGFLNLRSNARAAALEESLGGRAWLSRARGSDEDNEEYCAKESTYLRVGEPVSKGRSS
The method, then:
(§1)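 A pool of 90-nt single-stranded DNAs with seven random bases just before the constant AC of the nick site (name = the seven bases) was cut by 3 µM recombinant His6-SUMO-tagged Rep nickase domain (300 nM DNA, 50 mM HEPES pH 8.0, 50 mM NaCl, 1 mM MnCl2, 1 h, 37 °C, three replicates). Uncut DNA was amplified and sequenced.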

In test [2] the test system is T2, Rep nickase domain of banana bunchy top virus.
T2 sequence (protein, residues 1-94, tag omitted): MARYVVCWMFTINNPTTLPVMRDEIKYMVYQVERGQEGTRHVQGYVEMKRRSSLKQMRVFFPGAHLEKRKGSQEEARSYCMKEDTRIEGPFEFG
How it is done: as §1
Test [3] concerns T3, Rep nickase domain of cabbage leaf curl virus.
T3 sequence (protein, residues 1-116, tag omitted): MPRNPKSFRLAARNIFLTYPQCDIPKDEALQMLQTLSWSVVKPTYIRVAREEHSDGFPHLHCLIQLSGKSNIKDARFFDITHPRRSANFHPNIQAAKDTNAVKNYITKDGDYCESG
The method, then: as §1
Test [4] deals with T4, Rep nickase domain of chickpea chlorotic dwarf virus.
T4 sequence (protein, residues 1-124, tag omitted): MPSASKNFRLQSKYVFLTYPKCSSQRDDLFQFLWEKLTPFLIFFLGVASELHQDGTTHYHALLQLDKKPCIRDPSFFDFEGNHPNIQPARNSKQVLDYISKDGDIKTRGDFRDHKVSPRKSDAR
The method, then: as §1
The subject of test [5] is T5, Rep nickase domain of faba bean necrotic yellows virus.
T5 sequence (protein, residues 1-98, tag omitted): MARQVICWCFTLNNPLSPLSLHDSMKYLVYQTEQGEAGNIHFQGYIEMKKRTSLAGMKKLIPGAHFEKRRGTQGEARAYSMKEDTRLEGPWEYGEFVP
The method, then: as §1
Test [6] concerns T6, Rep nickase domain of maize striate mosaic virus.
T6 sequence (protein, residues 1-117, tag omitted): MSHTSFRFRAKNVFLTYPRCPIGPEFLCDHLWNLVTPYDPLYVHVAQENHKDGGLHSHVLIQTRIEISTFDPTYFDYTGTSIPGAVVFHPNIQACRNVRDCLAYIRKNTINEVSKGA
How it is done:
as §1

Test [7] deals with T7, Rep nickase domain of porcine circovirus 2.
T7 sequence (protein, residues 2-116, tag omitted): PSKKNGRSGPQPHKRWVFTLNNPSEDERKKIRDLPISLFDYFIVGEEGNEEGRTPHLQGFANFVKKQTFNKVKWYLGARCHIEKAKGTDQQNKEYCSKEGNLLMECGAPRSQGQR
The method, then:
as §1

The test system of test [8] is T8, Rep nickase domain of tomato golden mosaic virus.
T8 sequence (protein, residues 1-124, tag omitted): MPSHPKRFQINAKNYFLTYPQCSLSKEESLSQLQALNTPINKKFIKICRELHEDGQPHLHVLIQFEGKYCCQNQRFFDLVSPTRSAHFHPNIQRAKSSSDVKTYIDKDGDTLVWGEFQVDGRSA
How it is done: as §1
Test [9] relates to T9, Rep nickase domain of tomato yellow leaf curl virus.
T9 sequence (protein, residues 1-136, tag omitted): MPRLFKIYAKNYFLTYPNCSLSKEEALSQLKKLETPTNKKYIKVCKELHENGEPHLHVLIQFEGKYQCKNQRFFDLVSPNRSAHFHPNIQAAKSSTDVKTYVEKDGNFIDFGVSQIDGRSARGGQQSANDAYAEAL
The method, then:
as §1

The subject of test [10] is T10, Rep nickase domain of wheat dwarf virus.
T10 sequence (protein, residues 1-137, tag omitted): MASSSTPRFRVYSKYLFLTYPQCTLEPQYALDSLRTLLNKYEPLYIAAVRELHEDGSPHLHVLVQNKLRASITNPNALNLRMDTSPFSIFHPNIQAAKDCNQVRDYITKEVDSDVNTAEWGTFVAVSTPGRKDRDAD
The method, then:
as §1

The list shows a part of the results. The data describe in vitro nicking of single-stranded DNA by Rep domains for 1 h at 37 °C with 3 µM enzyme; only the middle of the 90-letter strands is printed. Values are log2 of uncut reads against the no-enzyme pool; the lower, the more was cut; hits are not called. Shares of all reads are compared; uncut strands gain when others are lost, and binding without cutting may add a little.

Turning to TCTTGGA, the “uncleaved DNA left (log2)” value in [1] is 0.0459; in test [2], -0.137; in test [3] it was -0.104; in test [4] it was -0.26; in [5], -0.024; in test [6] it was -0.577. Besides, the “uncleaved DNA left (log2)” value in [7] is -0.0243; in [8] it was -0.0449; in test [9], -0.0544; in [10], -0.192.
As for TCTAAAA, the “uncleaved DNA left (log2)” value in test [1] is 0.0146; in [2], -0.0461; in test [3], 0.0351; in test [4], -0.013; in test [5] it was -0.0304; in test [6], -0.468. Further, the “uncleaved DNA left (log2)” value in test [7] was 0.0762; in test [8], -0.0385; in test [9], -0.141; in test [10] it was -0.038.
As for GTAAGGG, the “uncleaved DNA left (log2)” value in test [1] was 0.00202; in [2], 0.0483; in test [3], 0.228; in [4] it was 0.594; in test [5], 0.0254; in [6], 0.179. Further, the “uncleaved DNA left (log2)” value is 0.119 in [7], -0.0234 in test [8], 0.00425 in test [9] and -0.00578 in [10].
CTCGATG: the “uncleaved DNA left (log2)” value in test [1] was -0.0667; in [2] it was -0.0892; in [3], -0.515; in test [4], -0.147; in test [5] it was -0.234; in [6], -0.76. In addition, the “uncleaved DNA left (log2)” value was 0.0106 in test [7], -0.148 in [8], -0.0934 in [9] and -0.12 in [10].
For the sequence TTAATGA, the “uncleaved DNA left (log2)” value is 0.0434 in test [1]; 0.00988 in [2]; 0.136 in [3]; 0.0898 in test [4]; 0.0497 in test [5]; -0.597 in test [6]. Besides, the “uncleaved DNA left (log2)” value is -0.0385 in test [7], 0.0372 in [8], 0.0316 in [9] and -0.0331 in test [10].
With GAGCTTG, the “uncleaved DNA left (log2)” value in [1] came to 0.14; in [2] it was 0.162; in [3], 0.198; in test [4], 0.854; in test [5], 0.0548; in test [6], 1.11. The “uncleaved DNA left (log2)” value stood at 0.166 in test [7], 0.135 in test [8], 0.0565 in test [9] and 0.194 in test [10].
In the case of ACATGGG, the “uncleaved DNA left (log2)” value in test [1] was 0.134; in test [2], 0.0346; in test [3] it was -0.7; in test [4], 0.123; in [5], 0.0307; in test [6], -0.681. Further, the “uncleaved DNA left (log2)” value in test [7] was 0.195; in test [8] it was 0.0717; in test [9], 0.0438; in test [10], -0.128.
With ACAATAC, the “uncleaved DNA left (log2)” value in test [1] was -0.0904; in test [2] it was -0.0628; in test [3] it was -0.233; in test [4], -0.878; in [5], 0.071; in [6], -1.04. Moreover, the “uncleaved DNA left (log2)” value in test [7] was 0.0926; in test [8], 0.0349; in test [9], -0.152; in test [10], -0.0974.
On to CTGAGCT, for which the “uncleaved DNA left (log2)” value in [1] is 0.222; in [2], 0.109; in test [3], 0.0198; in test [4] it was -0.116; in test [5] it was 0.134; in test [6], -0.462. For the same sequence, the “uncleaved DNA left (log2)” value in [7] worked out at 0.147; in [8] it was 0.181; in test [9], 0.127; in test [10], 0.12.
For the sequence TGTCCTG, the “uncleaved DNA left (log2)” value was 0.00242 in [1]; -0.0358 in [2]; -0.014 in test [3]; 0.139 in [4]; -0.0185 in [5]; 0.522 in test [6]. For the same sequence, the “uncleaved DNA left (log2)” value in test [7] is -0.0262; in test [8], -0.0314; in test [9], 0.0761; in test [10], -0.0702.
Regarding ATCGTGA, the “uncleaved DNA left (log2)” value was 0.00153 in [1]; -0.00822 in test [2]; -0.255 in test [3]; -0.289 in test [4]; -0.0014 in test [5]; -0.951 in test [6]. Besides, the “uncleaved DNA left (log2)” value in [7] was 0.0656; in [8], 0.0743; in [9] it was -0.0174; in test [10] it was -0.0105.
For AATCGCT, the “uncleaved DNA left (log2)” value is 0.0193 in test [1]; 0.0305 in test [2]; -0.469 in [3]; -1.76 in test [4]; 0.0545 in test [5]; -1.04 in test [6]. The “uncleaved DNA left (log2)” value in test [7] was -1.19; in test [8], -0.00608; in test [9], 0.0572; in test [10], -0.071.
In the case of AACCTCT, the “uncleaved DNA left (log2)” value is -0.103 in test [1]; -0.151 in [2]; -0.507 in test [3]; -2.98 in [4]; -0.2 in test [5]; -0.63 in test [6]. The “uncleaved DNA left (log2)” value in test [7] was -1.63; in test [8], -0.157; in test [9] it was -0.142; in [10], -0.246.
For GTTAGAT, the “uncleaved DNA left (log2)” value came to 0.0203 in test [1]; 0.153 in test [2]; 0.427 in test [3]; 0.973 in test [4]; 0.0275 in test [5]; 1.7 in test [6]. The “uncleaved DNA left (log2)” value in test [7] worked out at 0.143; in [8], 0.181; in [9], 0.178; in test [10], 0.141.
Consider CAAGAGC, for which the “uncleaved DNA left (log2)” value is 0.0511 in [1]; 0.101 in [2]; -0.273 in test [3]; -0.272 in [4]; 0.0426 in test [5]; -1.12 in [6]. The “uncleaved DNA left (log2)” value in test [7] came out at 0.225; in [8], 0.156; in [9] it was 0.0789; in test [10] it was 0.0334.
